Assay results taken from PubChem BioAssay (NCATS).
Where “and” joins values, the source holds several entries; their conditions need not be identical. Equal values may be shown once. The shares of active, inactive and inconclusive entries below differ from those in the screen. For part of these data: A potency beside an inconclusive call is a rough fit, not a confirmed value. For part of these data: A note “side channel” means that the fit belongs to a control or component signal, not to the main read-out. Calls of active or inactive are those of the source. Unless noted, the call rests on the fitted dose curve; in most records, active means well fitted curve in the direction sought with a large enough effect; inconclusive means small, poorly fitted or top-dose-only effect, or another doubt; inactive means no such curve, though single readings can be large; an effect the other way counts as inactive or inconclusive.

Tests used:
[1] = target: ATPase family AAA domain-containing protein 5 (Homo sapiens) (UniProt Q96QE3); assay: Validation screen for small molecules that inhibit ELG1-dependent DNA repair in human embryonic kidney (HEK293T) cells expressing luciferase-tagged ELG1 (AID 493107); conditions: HEK293T ELG1-luciferase level, luminescence, 5-fluorouridine co-treatment, 16 h; activity change, negative = decrease: at 46.1 µM (top of the series); further: potency means the concentration at half of the fitted maximal effect; nearly all actives have a fitted effect of over 70% in size
In short: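 Compounds reducing 5-fluorouridine-driven ELG1-luciferase signal in HEK293T cells were scored; exposure lasted 16 hr at 37 °C with luminescence detected via ONE-Glo.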

[2] = target: Peptidyl-prolyl cis-trans isomerase NIMA-interacting 1 (Homo sapiens) (UniProt Q13526); assay: qHTS Validation Assay to Find Inhibitors of Pin1 (AID 504536; active means well fitted inhibition curve with a large enough effect in the polarisation, with a control signal flat, not every such curve was filed as active; inconclusive means small, poorly fitted or top-dose-only effect, or effect the other way; the % refers to the polarisation;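 further: 0% = full Pin1 enzyme wells and -100% = no-enzyme wells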)
In short: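 Fluorescence polarization competition: compounds (titration) displace HiFluor-488-labeled Pin1-1b peptide from Pin1 (0.3 uM final) in pH 7.5 HEPES buffer with DTT, 10 min at room temperature; %Activity normalized to no-enzyme wells, curves fitted.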

[3] = target: Ubiquitin carboxyl-terminal hydrolase 1 (Homo sapiens) (UniProt O94782); assay: Inhibitors of USP1/UAF1: Pilot qHTS (AID 504865);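 further: rhodamine fluorescence freed from ubiquitin-rhodamine substrate followed over time; top concentration of the series differs between compounds; on the % scale 0 is the no-effect control and ±100 the full control effect; nearly all actives have a fitted effect of over 35% in size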
In short: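 USP1/UAF1 complex at 1 nM preincubated 15 min at room temperature with compound, then Ub-Rho substrate added at 150 nM final. Fluorescence (480/540 nm) read kinetically in 50 mM HEPES pH 7.8, 0.5 mM EDTA, 1 mM TCEP, 0.1 mg/ml BSA, 0.01% Tween-20.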

[4] = qHTS for Inhibitors of ATXN expression: Validation (AID 588378); further: potency means the concentration at half of the fitted maximal effect; nearly all actives have a fitted effect of over 75% in size
In short: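 HEK293 cells carrying ATXN2-firefly luciferase reporter, treated with compound 24 h at 37 °C. Viability read first by CellTiter-Fluor (405/525 nm), then reporter expression by Bright-Glo luminescence; controls were a known ATXN2 expression inhibitor and a luciferase inhibitor.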

[5] = qHTS of Nrf2 Activators: LOPAC Validation (AID 624149); further: 0% is about no effect
In short: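 Following overnight seeding in 5% FBS OPTI-MEM, AREc32_Fluc cells receive compounds for a 24 hr incubation at 37 deg C with 5% CO2. Steady-Glo is added, and after 30 min at RT luminescence is recorded.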

[6] = qHTS Assay for Identifying Gametocytocidal Compounds (AID 743244); further: potency means the concentration at half of the fitted maximal effect; conditions: P. falciparum 3D7 stage III-V gametocytes, alamarBlue, 72 h; max response: stronger effect = lower value
In short: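 Late gametocytes (III–V), P. falciparum 3D7; 72 h drug, then 24 h alamarBlue; resazurin reduction read by fluorescence.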

[7] = P-glycoprotein substrates identified in KB-3-1 adenocarcinoma cell line, qHTS therapeutic library screen (AID 1346986);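 further: potency means the concentration at half of the fitted maximal effect; potency is for cytotoxicity meaning loss of cell viability; nearly all actives have a fitted effect of over 60% in size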
In short: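 Viability by CellTiter-Glo after 72 h compound exposure at 37 degree C, 5% CO2. Cytotoxic call: curve class -1.1 to -2.4, maximum response >50%, AC50 < 10 uM, compared across KB-3-1 and P-gp-overexpressing KB-8-5-11.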

[8] = Natriuretic polypeptide receptor (hNpr1) antagonism - Pilot counterscreen GloSensor control cell line (AID 1347045; calls by dose curve; further: potency means the concentration at half of the fitted maximal effect)
In short: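 The SNP-driven cGMP luminescence signal (50 uM, 20 min, room temperature) was measured in GloSensor HEK293 control cells. Compounds were tested as a LOPAC titration series and preincubated for 30-50 min.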

[9] = target: Atrial natriuretic peptide receptor 2 (Homo sapiens) (UniProt P20594); assay: Natriuretic polypeptide receptor (hNpr2) antagonism - Pilot subtype selectivity assay (AID 1347050; calls by dose curve; further: potency means the concentration at half of the fitted maximal effect)
In short: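 Luminescence from a genetically encoded cGMP luciferase biosensor in hNpr2-expressing HEK293 cells is read before and 20 min after adding 1 nM hNppC. Test compounds, in interplate 1:5 titrations, are added 30-50 min ahead of the agonist.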

[10] = target: Tyrosine-protein phosphatase non-receptor type substrate 1 (Homo sapiens) + Leukocyte surface antigen CD47 (Homo sapiens) (UniProt P78324+Q08722); assay: CD47-SIRPalpha protein protein interaction - HTRF assay qHTS validation (AID 1347058; active means well fitted curve in the direction sought with a large enough effect in the signal ratio, not every such curve was filed as active; inconclusive means small, poorly fitted or top-dose-only effect, or effect the other way, or a change in a side signal; inactive means no such curve, though single readings can be large or run the other way; the % refers to the signal ratio; further: potency means the concentration at half of the fitted maximal effect)
In short: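 Soluble extracellular domains (6His-CD47, Avi-tag-biotinylated SIRPalpha) in PBS pH 7.4 with 0.05% IGEPAL CA-630. Compounds were preincubated 30 min at RT with CD47 and anti-His-Eu, then SIRPalpha and SAV-XL665 were added. TR-FRET 665/615 ratio.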

[11] = target: Parathyroid hormone/parathyroid hormone-related peptide receptor (Homo sapiens) (UniProt Q03431); assay: qHTS for PTHR1 Agonists: Optimization Screen against the NCGC LOPAC library (AID 1347079)
In short: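 Signal increase flags agonism. GP2 cells, derived from HEK-293, express human PTHR1 and a GloSensor cAMP construct.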

[12] = qHTS to identify inhibitors of the type 1 interferon - major histocompatibility complex class I in skeletal muscle: primary screen against the NCATS LOPAC collection (AID 1347405); conditions: iHSKM muscle cells, IFN-b-induced MHC-I HiBiT luminescence, 24 h; activity change, negative = inhibition: at 45.9 µM (top of the series)
In short: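 IFN-beta-stimulated (4 ng/ml) HLA-B HiBiT knock-in myoblasts, compound-treated 24 hrs up to 46 uM final; signal via LgBiT complementation and furimazine luminescence.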

[13] = Primary qHTS for inhibitors of La Crosse Virus (LACV) - induced cell death in SH-SY5Y cells (AID 1508616); further: potency means the concentration at half of the fitted maximal effect
In short: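 Screening measures cell viability in LACV-infected SH-SY5Y cultures. Compound was added before virus (0.01 MOI), and ATP was detected by luminescence 6 days later.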

[14] = Primary qHTS for small molecule stabilizers of the endoplasmic reticulum resident proteome: Secreted ER Calcium Modulated Protein (SERCaMP) assay (AID 1508630); conditions: SH-SY5Y GLuc-SERCaMP (Gaussia luciferase released on ER calcium loss) secretion, thapsigargin, luminescence; activity change, negative = inhibition: at 38.4 µM (top of the series) unless noted; further: potency means the concentration at half of the fitted maximal effect
In short: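 The SH-SY5Y reporter protocol was run at 3 concentrations up to 38.3 uM (primary) or 11 concentrations (follow-up): 16 h compound, 100 nM thapsigargin for 4 h, then extracellular luciferase luminescence.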

[15] = Primary qHTS for inhibitors of nuclear receptor binding SET domain protein 2 (NSD2) in an isogenic RCH-ACV NSD2 p.E1099K mutant (9B) (AID 1645876); conditions: activity change, negative = viability loss: at 44.9 µM (top of the series) unless noted; further: potency means the concentration at half of the fitted maximal effect; nearly all actives have a fitted effect of over 70% in size
[16] = Primary qHTS for inhibitors of nuclear receptor binding SET domain protein 2 (NSD2) in an RCH-ACV wild type WT cells (2C) (AID 1645877); conditions: activity change, negative = cell killing: at 44.9 µM (top of the series) unless noted; further: potency means the concentration at half of the fitted maximal effect; nearly all actives have a fitted effect of over 70% in size
[17] = qHTS assay to identify inhibitors of the type 1 interferon - major histocompatibility complex class I in skeletal muscle: Counter screen cell viability and HiBit confirmation (AID 1347412); conditions: iHSKM muscle cells + IFN-b, HiBiT or CellTiter-Glo, 24 h, at 45.9 µM (top of the series); further: on the % scale 0 is the no-effect control and ±100 the full control effect; nearly all actives have a fitted effect of over 60% in size
In short: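 CRISPR HLA-B*08:01-HiBit immortalized human myoblasts (C25cl48) stimulated with 4 ng/ml IFN-beta and compounds (12-point 1:3, top 46 uM final) for 24 h at 37 C. Duplicate plates read by HiBit lytic luminescence or CellTiter Glo ATP.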
Tags describe the fitted curve by direction and shape.

Sequence of UniProt P20594 (P20594 whole entry, looked up): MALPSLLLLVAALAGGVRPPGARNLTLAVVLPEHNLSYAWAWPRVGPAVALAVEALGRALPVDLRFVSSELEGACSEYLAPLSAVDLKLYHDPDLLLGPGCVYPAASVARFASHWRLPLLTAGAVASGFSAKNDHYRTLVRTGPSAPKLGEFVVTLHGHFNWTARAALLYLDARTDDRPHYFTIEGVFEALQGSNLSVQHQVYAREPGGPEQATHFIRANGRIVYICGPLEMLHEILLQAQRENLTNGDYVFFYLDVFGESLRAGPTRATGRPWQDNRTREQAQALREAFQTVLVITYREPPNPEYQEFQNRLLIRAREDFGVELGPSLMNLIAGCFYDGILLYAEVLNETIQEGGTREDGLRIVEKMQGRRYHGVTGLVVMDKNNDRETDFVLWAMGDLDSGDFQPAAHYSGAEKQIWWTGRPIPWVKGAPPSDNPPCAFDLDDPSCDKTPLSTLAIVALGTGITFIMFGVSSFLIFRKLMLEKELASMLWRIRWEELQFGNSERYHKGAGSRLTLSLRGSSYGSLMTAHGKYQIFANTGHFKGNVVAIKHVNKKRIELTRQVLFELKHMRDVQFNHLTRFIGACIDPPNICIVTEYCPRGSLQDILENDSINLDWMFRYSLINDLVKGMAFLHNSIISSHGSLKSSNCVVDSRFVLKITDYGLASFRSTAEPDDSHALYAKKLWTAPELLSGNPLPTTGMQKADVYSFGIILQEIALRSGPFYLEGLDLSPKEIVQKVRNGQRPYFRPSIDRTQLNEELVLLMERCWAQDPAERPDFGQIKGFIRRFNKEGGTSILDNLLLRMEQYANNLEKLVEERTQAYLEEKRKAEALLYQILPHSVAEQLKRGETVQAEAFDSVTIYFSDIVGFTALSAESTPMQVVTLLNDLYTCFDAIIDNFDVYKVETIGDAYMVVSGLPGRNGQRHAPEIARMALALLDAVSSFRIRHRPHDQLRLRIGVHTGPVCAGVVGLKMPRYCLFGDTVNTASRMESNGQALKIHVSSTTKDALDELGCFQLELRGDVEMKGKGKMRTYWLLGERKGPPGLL
Sequence of UniProt O94782 (O94782 whole entry, looked up): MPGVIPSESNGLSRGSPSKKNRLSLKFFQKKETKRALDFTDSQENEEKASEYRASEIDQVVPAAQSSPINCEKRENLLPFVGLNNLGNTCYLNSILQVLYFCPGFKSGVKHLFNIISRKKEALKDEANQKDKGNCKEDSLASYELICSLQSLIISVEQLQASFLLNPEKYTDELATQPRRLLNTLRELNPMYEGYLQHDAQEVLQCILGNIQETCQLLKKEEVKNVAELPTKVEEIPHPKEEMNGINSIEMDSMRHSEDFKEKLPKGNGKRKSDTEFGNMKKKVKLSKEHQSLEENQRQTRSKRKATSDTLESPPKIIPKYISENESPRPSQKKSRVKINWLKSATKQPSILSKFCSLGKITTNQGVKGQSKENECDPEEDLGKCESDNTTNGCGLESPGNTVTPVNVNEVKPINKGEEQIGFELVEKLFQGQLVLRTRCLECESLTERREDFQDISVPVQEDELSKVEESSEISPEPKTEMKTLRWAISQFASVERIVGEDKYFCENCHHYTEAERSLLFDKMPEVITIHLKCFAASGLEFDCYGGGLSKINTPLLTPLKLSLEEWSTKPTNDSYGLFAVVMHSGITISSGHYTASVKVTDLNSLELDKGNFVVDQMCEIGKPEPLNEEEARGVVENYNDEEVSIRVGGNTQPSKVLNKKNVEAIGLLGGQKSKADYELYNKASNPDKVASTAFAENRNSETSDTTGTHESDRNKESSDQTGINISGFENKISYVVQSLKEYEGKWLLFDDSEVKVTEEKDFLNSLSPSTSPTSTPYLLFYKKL
Sequence of UniProt Q96QE3 (Q96QE3 whole entry, looked up, the tested form may be a part): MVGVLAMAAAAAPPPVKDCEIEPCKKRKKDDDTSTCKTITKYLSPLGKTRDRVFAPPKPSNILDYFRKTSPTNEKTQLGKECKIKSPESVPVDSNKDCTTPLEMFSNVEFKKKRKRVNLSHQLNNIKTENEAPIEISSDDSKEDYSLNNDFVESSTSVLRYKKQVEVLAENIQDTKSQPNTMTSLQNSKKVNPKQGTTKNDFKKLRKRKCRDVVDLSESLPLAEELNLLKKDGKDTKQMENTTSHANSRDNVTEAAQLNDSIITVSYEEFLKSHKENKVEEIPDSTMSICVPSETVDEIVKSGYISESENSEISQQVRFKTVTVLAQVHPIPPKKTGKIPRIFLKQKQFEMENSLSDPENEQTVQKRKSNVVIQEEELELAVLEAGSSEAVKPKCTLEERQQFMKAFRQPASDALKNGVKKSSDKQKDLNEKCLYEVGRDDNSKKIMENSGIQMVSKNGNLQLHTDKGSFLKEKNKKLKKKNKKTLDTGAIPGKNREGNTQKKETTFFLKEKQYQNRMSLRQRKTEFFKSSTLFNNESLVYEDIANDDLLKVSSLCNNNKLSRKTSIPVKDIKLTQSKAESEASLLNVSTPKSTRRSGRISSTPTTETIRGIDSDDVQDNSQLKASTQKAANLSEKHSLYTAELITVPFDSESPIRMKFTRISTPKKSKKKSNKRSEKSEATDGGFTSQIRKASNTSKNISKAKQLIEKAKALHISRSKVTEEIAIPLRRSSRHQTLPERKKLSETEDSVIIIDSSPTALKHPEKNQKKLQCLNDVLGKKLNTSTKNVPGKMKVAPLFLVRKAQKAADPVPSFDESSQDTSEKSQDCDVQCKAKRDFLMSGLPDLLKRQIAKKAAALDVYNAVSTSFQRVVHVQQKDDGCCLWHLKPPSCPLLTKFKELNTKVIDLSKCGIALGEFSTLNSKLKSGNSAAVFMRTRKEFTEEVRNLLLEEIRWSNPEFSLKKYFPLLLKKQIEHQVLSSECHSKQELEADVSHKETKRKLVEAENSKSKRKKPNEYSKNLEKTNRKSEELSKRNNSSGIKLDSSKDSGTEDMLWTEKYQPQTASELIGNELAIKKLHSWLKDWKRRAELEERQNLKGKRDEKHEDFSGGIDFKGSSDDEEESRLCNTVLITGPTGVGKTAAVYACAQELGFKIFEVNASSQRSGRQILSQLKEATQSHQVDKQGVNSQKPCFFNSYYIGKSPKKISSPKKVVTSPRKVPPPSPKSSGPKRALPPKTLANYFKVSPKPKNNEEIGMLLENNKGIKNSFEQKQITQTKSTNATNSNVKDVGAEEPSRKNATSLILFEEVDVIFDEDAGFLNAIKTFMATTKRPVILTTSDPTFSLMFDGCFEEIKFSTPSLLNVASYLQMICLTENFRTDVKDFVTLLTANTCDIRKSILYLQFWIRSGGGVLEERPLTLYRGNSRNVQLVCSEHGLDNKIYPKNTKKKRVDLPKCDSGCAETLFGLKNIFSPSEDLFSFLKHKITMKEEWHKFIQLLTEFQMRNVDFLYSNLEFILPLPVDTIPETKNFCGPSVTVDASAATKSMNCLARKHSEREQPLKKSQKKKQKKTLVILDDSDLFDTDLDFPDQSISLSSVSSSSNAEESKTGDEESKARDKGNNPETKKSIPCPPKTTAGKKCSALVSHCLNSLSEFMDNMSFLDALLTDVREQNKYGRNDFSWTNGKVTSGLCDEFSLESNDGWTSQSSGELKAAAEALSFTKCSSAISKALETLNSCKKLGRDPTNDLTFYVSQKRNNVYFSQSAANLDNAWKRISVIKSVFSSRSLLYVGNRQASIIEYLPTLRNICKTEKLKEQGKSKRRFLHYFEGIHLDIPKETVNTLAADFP
Sequence of UniProt P78324 (P78324 whole entry, looked up, the tested form may be a part): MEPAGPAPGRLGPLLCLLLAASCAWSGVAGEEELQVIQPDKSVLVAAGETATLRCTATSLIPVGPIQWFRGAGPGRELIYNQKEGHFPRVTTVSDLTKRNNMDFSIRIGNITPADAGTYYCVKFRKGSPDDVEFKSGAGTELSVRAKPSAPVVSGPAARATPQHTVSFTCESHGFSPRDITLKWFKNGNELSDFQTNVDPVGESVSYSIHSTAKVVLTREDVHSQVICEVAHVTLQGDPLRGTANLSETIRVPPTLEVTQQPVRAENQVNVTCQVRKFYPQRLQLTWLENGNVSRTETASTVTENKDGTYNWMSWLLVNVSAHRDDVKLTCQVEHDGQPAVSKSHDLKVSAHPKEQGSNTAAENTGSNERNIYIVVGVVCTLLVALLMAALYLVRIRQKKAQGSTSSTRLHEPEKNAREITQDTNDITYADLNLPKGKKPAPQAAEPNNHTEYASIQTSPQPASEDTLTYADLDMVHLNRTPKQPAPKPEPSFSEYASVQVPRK
Sequence of UniProt P78324 (Q08722 whole entry, looked up, the tested form may be a part): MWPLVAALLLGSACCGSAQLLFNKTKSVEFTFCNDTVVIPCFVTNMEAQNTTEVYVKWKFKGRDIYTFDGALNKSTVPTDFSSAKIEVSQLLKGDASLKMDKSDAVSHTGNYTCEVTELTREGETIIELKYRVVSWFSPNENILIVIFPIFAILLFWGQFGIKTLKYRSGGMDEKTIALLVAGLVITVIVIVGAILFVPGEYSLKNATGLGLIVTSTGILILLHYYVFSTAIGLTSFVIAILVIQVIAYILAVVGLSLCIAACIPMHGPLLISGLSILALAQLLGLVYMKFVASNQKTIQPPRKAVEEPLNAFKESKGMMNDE
Sequence of UniProt Q03431 (Q03431 whole entry, looked up): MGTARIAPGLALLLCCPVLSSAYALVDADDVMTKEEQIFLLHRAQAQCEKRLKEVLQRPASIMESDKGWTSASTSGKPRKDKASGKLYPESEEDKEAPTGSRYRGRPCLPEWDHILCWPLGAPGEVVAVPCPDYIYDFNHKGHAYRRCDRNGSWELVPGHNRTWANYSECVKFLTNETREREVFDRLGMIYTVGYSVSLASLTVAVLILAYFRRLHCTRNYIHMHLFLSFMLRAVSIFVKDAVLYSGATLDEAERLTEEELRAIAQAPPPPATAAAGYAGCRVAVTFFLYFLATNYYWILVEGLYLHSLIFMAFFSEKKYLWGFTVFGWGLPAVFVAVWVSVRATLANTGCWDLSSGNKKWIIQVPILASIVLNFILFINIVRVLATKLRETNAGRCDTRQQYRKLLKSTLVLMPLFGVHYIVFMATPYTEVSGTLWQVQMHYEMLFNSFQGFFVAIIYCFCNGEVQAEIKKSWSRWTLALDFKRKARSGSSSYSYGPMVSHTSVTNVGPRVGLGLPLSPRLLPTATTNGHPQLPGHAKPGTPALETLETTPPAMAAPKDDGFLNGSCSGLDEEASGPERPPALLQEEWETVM

O=S(=O)(c1cccc2c(I)cccc12)N1CCCNCC1
active: Potency [4] 12.6 µM
inactive: Potency [2] | Potency [3] | Potency [5] | activity change, negative = inhibition ([17]; HiBiT) -4.28% | activity change, negative = inhibition ([17]; Viability) -12.4%
inconclusive: Potency [1] 29.1 µM [inhibitor, single point] | Potency [6] 6.31 µM [inhibitor, single point] | Potency [7] 29.1 µM [inhibitor, single point] | Potency [8] 13.1 µM [inhibitor, partial curve, poor fit] | Potency [9] 26.1 µM [inhibitor, single point] | Potency [10] 1.31 µM [side channel, rising, full curve] | Potency [11] 5.32 µM [activator, partial curve, poor fit] | Potency [12] 15.8 µM [inhibitor, partial curve, poor fit] | Potency [13] 2.51 µM [inhibitor, partial curve, poor fit] | Potency [14] 22.4 µM [inhibitor, partial curve, poor fit] and 28.2 µM [inhibitor, single point] | Potency [15] 20.9 µM [inhibitor, partial curve] and 20.6 µM [inhibitor, single point] | Potency [16] 26.3 µM [inhibitor, partial curve, poor fit] and 20.6 µM [inhibitor, single point]
